Measured values reported in publication PMC4336329 (PLoS ONE, 2015).
Screen size: about 310,000 compounds; about 14,000 (4.5%) showed an effect of 50% or more. Effects have a minus sign here. The list shows a part of the results.

target: human ether-à-go-go-related gene (hERG) potassium channel (human, UniProt Q12809); assay: primary screen, population patch clamp on CHO cells stably expressing hERG
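Also: peak tail current of the secondary pulse compared with the same well before compound.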

human ether-à-go-go-related gene (hERG) potassium channel, sequence (Q12809 whole entry, looked up): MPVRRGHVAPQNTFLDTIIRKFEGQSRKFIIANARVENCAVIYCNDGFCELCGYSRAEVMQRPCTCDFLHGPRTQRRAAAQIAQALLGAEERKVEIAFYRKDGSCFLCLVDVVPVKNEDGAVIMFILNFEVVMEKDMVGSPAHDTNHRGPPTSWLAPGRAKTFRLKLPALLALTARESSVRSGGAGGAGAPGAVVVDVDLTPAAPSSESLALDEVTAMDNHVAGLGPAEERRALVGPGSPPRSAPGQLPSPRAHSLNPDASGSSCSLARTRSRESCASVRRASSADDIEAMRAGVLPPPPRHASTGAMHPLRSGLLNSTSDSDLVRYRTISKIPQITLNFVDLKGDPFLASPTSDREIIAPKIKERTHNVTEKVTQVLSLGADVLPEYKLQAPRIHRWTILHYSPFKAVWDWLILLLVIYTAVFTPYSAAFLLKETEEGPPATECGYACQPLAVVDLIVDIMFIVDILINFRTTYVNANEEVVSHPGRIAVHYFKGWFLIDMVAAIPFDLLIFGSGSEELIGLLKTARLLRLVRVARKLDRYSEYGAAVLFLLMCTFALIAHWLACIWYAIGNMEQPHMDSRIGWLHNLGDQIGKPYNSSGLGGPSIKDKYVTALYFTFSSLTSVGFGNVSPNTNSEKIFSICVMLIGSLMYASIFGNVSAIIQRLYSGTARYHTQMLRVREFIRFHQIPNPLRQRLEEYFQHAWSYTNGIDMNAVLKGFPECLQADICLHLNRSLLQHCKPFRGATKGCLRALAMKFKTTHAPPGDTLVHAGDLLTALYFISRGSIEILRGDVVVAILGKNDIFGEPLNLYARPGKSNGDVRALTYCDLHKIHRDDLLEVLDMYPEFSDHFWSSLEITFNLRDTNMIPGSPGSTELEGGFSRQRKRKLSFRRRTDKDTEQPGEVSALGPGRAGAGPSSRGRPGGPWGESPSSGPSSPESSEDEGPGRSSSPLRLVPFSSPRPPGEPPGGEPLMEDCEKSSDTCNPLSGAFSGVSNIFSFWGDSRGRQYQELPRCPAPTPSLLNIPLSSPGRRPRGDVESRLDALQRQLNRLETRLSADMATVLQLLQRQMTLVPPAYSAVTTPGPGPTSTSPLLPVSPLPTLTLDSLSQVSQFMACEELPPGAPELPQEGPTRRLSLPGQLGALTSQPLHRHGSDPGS

Compound | hERG current change (%, negative = inhibition) at 10uM
COc1ccc(-c2nnc(SCC(=O)N(C)C3CCS(=O)(=O)C3)n2N)cc1OC (centres unmarked) | 19.8%
CC(C)N(C)C1CCN(C(=O)Nc2ccc(Cl)cc2)CC1 | -31%
COc1ccc(S(=O)(=O)Nc2ccc(Oc3ccsc3C(=O)O)cc2)cc1 | 25%
COc1ccc(C2c3ccc(O)cc3Oc3ncn(Cc4ccccc4)c(=N)c32)cc1OC (centres unmarked) | -51.7%
COc1cc(NC(=O)CCN2CC(C)OC(C)C2)cc(OC)c1 (centres unmarked) | 2.79%
Cc1ccc(Cl)cc1N(Cc1ccc(C(=O)NCc2cccnc2)cc1)S(=O)(=O)c1ccccc1 | 0.526%
COc1ccc(OCCn2c(=N)n(CCO)c3ccccc32)cc1.Cl | -24.2%
CC(C)c1ccc(C2NC(=O)NC3=C2CCc2ccccc23)cc1 (centres unmarked) | -33.5%
CCOC(=O)c1c2c(n(C)c1C)C(=O)C(=O)c1ccc(Br)cc1-2 | 19.6%
CCOc1ccc(NC(=O)c2ccc(NCC(=O)N3CCCCCC3)cc2)cc1 | 3.07%
COc1ccc(C(=O)N2CCCc3ccccc32)cc1Br | -29.4%
O=C1CC(O)(C(F)(F)F)Oc2c1ccc1ccccc21 (centres unmarked) | 7.95%
CCOC(=O)c1c(NC(=O)COC(=O)CNC(=O)c2ccco2)sc(C)c1C | -5.35%
Cc1ccsc1C(=O)C1CCCN(Cc2ccc(O)cc2)C1 (centres unmarked) | -22.9%
COc1nc(-c2ccccc2)ccc1-c1noc(C)n1 | -5.52%
COc1ccc(NC(=O)CSc2sc3c(O)cc(=O)[nH]c3c2C#N)c(OC)c1 | 9.73%
C/C(=N\Nc1nc(-c2cc(C)ccc2C)cs1)c1cc2ccccc2oc1=O | 29.3%
Cc1nc2ccccc2c(=O)n1-c1cccc(C(F)(F)F)c1 | -3.18%
OC(COc1ccc2c(c1)CCC2)CN1CCN(c2ccccc2F)CC1 (centres unmarked) | -14.6%
CCC(CC)C1C(C#N)=C(N)Oc2n[nH]c(C)c21 (centres unmarked) | -5.96%
O=C(COC(=O)c1cnccn1)c1ccc(OC(=O)c2ccccc2)cc1 | 1.51%
Cc1conc1NC(c1cccs1)c1ccc2cccnc2c1O (centres unmarked) | -13.7%
Cc1cc(=O)n2nc(N3CCCC(C(=O)NCc4ccc5c(c4)OCO5)C3)sc2n1 (centres unmarked) | -25.3%

Compound | hERG current change (%, negative = inhibition) at 10uM
CCCCN(CC)CCCNC(=O)c1cc2cc3ccc(C)cc3nc2o1 | -53.4%
Oc1nc(Nc2cccc(Cl)c2)sc1/C=C1\C=Nc2ccccc21 | 4.36%
O=C(Nc1ccon1)c1nc[nH]c1C(=O)NCc1ccccc1 | 12.7%
COCCN(C(=O)COC(=O)c1ccc2c(c1)OCCO2)c1c(N)n(Cc2ccccc2)c(=O)[nH]c1=O | -1.5%
CCc1cc2c3c(c(=O)oc2cc1OCC(=O)OC)CCCC3 | -0.568%
COC(=O)c1c(-c2c(Cl)cccc2Cl)noc1NC(=O)NN1CCCCC1 | -14.7%
O=C1C2C(C(=O)N1/N=C/c1ccco1)C1C=CC2C12CC2 (centres unmarked) | -2.95%
COc1cc2cc(Oc3ccc4ccc(=O)oc4c3)c(=O)oc2cc1OC(C)=O | 0.234%
COc1ccc(-n2nc(C(=O)NCC(=O)NCCC3=CCCCC3)c3ccccc3c2=O)cc1 | -2.65%
Cc1ccc(CNC(=O)c2ccc(CNc3c(N4CCCC4)c(=O)c3=O)cc2)cc1 | -2.17%
COc1ccccc1Cc1nc(-c2ccc(C)cc2)no1 | -11.8%
OCC1(CCc2ccccc2)CCN(Cc2ccc3nsnc3c2)CC1 | -77.7%
CCOC(=O)CC1C(=O)NCCN1S(=O)(=O)c1ccc(Br)cc1 (centres unmarked) | -3.86%
CC(C)(CC(=O)O)CC(=O)Nc1ccc2c(c1)ncn2CCc1ccccc1 | 15.8%
CC(C)(C)c1csc(NNC(=O)c2ccc(Br)cc2)n1 | 11.4%
O=C(Nc1cccc(F)c1)NC1CC2CCCC(C1)N2C1CC1 (centres unmarked) | -8.34%
COc1ccc(-c2cc(C(=O)OCC(=O)c3c(N)n(C)c(=O)n(C)c3=O)c3ccccc3n2)cc1 | -34.6%
CCCOc1ccc(C(=O)Nc2ccc(N3CCN(C(=O)c4ccco4)CC3)cc2)cc1 | 13.2%
CC(NC(=O)CN1CCN(S(=O)(=O)c2ccc(Br)cc2)CC1)c1ccccc1 (centres unmarked) | -36.9%
COCCN1CCc2[nH]c(=S)[nH]c(=O)c2C1 | -9.22%
O=C(Nc1ccc(-c2cn3c(n2)SCC3)cc1)c1ccco1 | 10.2%
CN(C)CCCN(C(=O)c1ccc(S(=O)(=O)N(C)C2CCCCC2)cc1)c1nc2ccc(Br)cc2s1.Cl | 2.39%
COC(=O)Cn1cc(/C=C2\C(=O)NC(=O)N(c3ccccc3)C2=O)c2ccccc21 | 6.36%

Compound | hERG current change (%, negative = inhibition) at 10uM
CCCn1nnnc1NC(=O)CSc1ccc(Cl)cc1 | 5.42%
COc1ccc([N+](=O)[O-])cc1NC(=O)C(C)Sc1ccccc1 (centres unmarked) | -18.3%
COc1ccc(C2C3(C#N)C(N)=NC(OC)(OC)C23C#N)cc1 (centres unmarked) | -53.4%
Cc1ccccc1-c1nn(-c2ccc(F)cc2F)cc1CNCCCN(C)C | 2.75%
CNc1c([N+](=O)[O-])cnn1-c1ccc(C)cc1 | -2.24%
CCC(Sc1nc2ncnc(N)c2[nH]1)C(=O)O (centres unmarked) | 44.4%
OCCNc1ncnc2ccc(Br)cc12 | 10.1%
Cl.O=C(CNCc1ccccc1)NC1C2CC3CC(C2)CC1C3 (centres unmarked) | 4.5%
COc1ccccc1OCC(=O)Nc1cc(Cl)ccc1N1CCCCC1 | -3.56%
O=C(COC(=O)c1cc(=O)[nH]c2ccccc12)NCc1ccc(Cl)cc1 | -3.34%
Cc1ccc(NC(=O)CN2CCN(Cc3ccccc3)CC2)cc1Cl | -46%
CN(Cc1nc(-c2cccs2)no1)CC1COCCO1 (centres unmarked) | 1.17%
CCOC(=O)CSc1nc(-c2ccccc2)nc2c1oc1ccccc12 | 6.49%
O=C(CSc1ccccc1)N1CCN(c2ccccn2)CC1 | -24.6%
O=C(O)c1ccc(S(=O)(=O)N2CCC(n3nnc4cc(C(F)(F)F)ccc43)CC2)cc1 | -37.7%
COC(=O)C1=C(C)NC(=S)NC1c1ccc(OCC(=O)N2CCCCC2)c(OC)c1 (centres unmarked) | 12.9%
O=C(Nc1ccc([N+](=O)[O-])cn1)C1CCCCC1 | 2.46%
O=C(CCN1C(=O)c2ccccc2C1=O)N1CCN(c2ccccc2)CC1 | -23%
CCCn1cc(CN2CCC(Cc3ccccc3)(C(=O)OCC)CC2)c(C)n1 | -60.4%
COCc1[nH]nc2c1C(C1C=CCCC1)C(C#N)=C(N)O2 (centres unmarked) | -8.37%
CCOC(=O)C1CCCN(C(=O)Cn2nc(C)n3nc(-c4ccccc4)cc3c2=O)C1 (centres unmarked) | -8.5%
Cc1cc(C)c2c(NC(=O)CCl)nn(C)c2n1 | 8.17%
CCOC(=O)N1CCN(C(=O)c2ccc(CS(=O)Cc3ccccc3Cl)o2)CC1 (centres unmarked) | 11.3%

Compound | hERG current change (%, negative = inhibition) at 10uM
CCc1ccccc1N1C(=O)C2C3CC(=O)C(c4ccccc43)C2C1=O (centres unmarked) | 18.3%
CN(C)C(=O)/C=C\c1cn(-c2ccccc2)nc1-c1ccc2c(c1)OCCO2 | 10.7%
O=C1CCCCCN1C(=O)c1cccc(C(=O)N2CCCCCC2=O)c1 | 4.67%
O=C(CN1CCN(C(=O)C2CCCO2)CC1)Nc1cc(C(F)(F)F)ccc1Cl (centres unmarked) | -45.8%
CCc1nc(SCC(=O)N2CCCCCC2)c2c(=O)n(C)c(=O)n(C)c2n1 | -19.6%
O=C(O)C1CSC(c2ccncc2)N1 (centres unmarked) | 17.6%
CCOC(=O)C(C)Sc1nnc(CNC(=O)c2ccc(OC)cc2)n1C1CCCCC1 (centres unmarked) | -8.89%
CCNC(=S)Nc1cccc(NC(=O)c2ccccc2O)c1 | 0.564%
COC(=O)N(NC(=O)C(O)(C(C)C)C(C)C)c1ccccc1 | 16.3%
CCC(=O)Nc1ccc(NC(=O)c2ccco2)cc1 | 8.4%
Cc1cccc(N2N=C(C(=O)O)CCC2=O)c1 | 10.2%
CSc1ccc(C2c3[nH]c4ccccc4c3CCN2C(=O)c2ccnn2C)cc1 (centres unmarked) | -13.7%
Oc1ccc(Nc2nc(-c3ccc(O)cc3)cs2)cc1 | 18.9%
CC1=C(C)/C(=N\OS(=O)(=O)c2ccc(C)cc2)C=CC1=O | 1.16%
COc1cc(-c2nnc(SCC(=O)N3CCCC3)o2)cc(OC)c1OC | 2.91%
Cc1ccc(C)c(NC(=O)CCC(=O)NNC(=O)C(c2ccccc2)c2ccccc2)c1 | 13.6%
Cc1ccc(-c2noc(-c3cccs3)n2)cc1 | -0.851%
CCOc1ccc(NC(=O)c2nn(-c3ccc(OC)cc3OC)c(=O)c3ccccc23)cc1 | 6.71%
COC(=O)COc1ccc2c(-c3ccc(OC)cc3)cc(=O)oc2c1 | -39.2%
O=c1[nH]ncc(N2CCCCCC2)c1Cl | 6.77%
